{"source": "PubChem BioAssay AID938", "about": "(National Center for Advancing Translational Sciences (NCATS), 2007)", "note": "The campaign covered roughly 73,000 compounds. About 1,800 (2.5%) were called active. The shares of active, inactive and inconclusive entries below differ from those in the screen. Calls follow the shape of the dose curve; as a rule, active = well fitted activation curve with a large enough effect; inconclusive = small, poorly fitted or top-dose-only effect; inactive = no such curve, though single readings can be large or run the other way. No potency is given beside an inconclusive call; the fits are too rough. Potency is read from the fitted curve at half-maximal effect; tags tell the direction and shape of the fitted curve."}
{"test": "qHTS Assay for Agonists of the Thyroid Stimulating Hormone Receptor: Activators of Intracellular cAMP Concentrations in Parental HEK 293; also: nearly all actives have a fitted effect of over 55% in size; as to activation: % of control where 0% means no effect", "conditions": "parental HEK293 CNG cAMP sensor, membrane potential fluorescence; activation: at 57.1 µM (top of the series) unless noted", "method_in_brief": "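Parental HEK 293 cells stably expressing a modified CNG channel (no TSHR) report cAMP rise as membrane depolarization. Membrane potential dye with 100 uM RO 20-1724 was loaded for 60 min at room temperature, then compound added for 30 min; fluorescence read at 590 nm.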"}
{"smiles": "O=C(O)c1cc(NCc2ccc3c(c2)OCO3)ccc1N1CCOCC1", "Potency": "inconclusive [activator, single point]"}
{"smiles": "Cc1noc(C)c1COC(=O)c1cc2c3ccccc3n(C)c2s1", "Potency": "inconclusive [activator, single point]"}
{"smiles": "CS(=O)(=O)Nc1ccc([N+](=O)[O-])cc1OC1CCCCC1", "Potency": "inconclusive [activator, single point]"}
{"smiles": "C/C=C/Cn1c(SCc2ccccc2)nc2c1c(=O)[nH]c(=O)n2C", "Potency": "inconclusive [activator, partial curve, poor fit]"}
{"smiles": "O=C(Nc1cccc(N2CCCC2)c1)c1cccs1", "activation": "inactive: -21.2%"}
{"smiles": "CCOC(=O)N1CCN(CC(=O)Nc2cc(OCC)ccc2OCC)CC1", "Potency": "inconclusive [activator, partial curve]"}
{"smiles": "CN(C)CC(C)(C)CNC(=O)C1CCN(Cc2ccccc2O)CC1", "Potency": "inconclusive [activator, single point]"}
{"smiles": "CSc1nc2c(c(=O)[nH]c(=O)n2C)n1C/C=C(\\C)Cl", "Potency": "inconclusive [activator, single point]"}
{"smiles": "Cc1cc(C(F)(F)F)nn1-c1nc(-c2ccco2)cc(C(F)(F)F)n1", "Potency": "inconclusive [activator, partial curve]"}
{"smiles": "Cn1c(=O)n(C)c2cc(S(=O)(=O)NCc3ccco3)ccc21", "Potency": "inconclusive [activator, single point]"}
{"smiles": "CN(C)CCNc1oc(COc2cccc(Cl)c2)nc1C#N", "activation": "inactive: -3.25%"}
{"smiles": "Cc1nc(NCc2ccco2)c2c3c(sc2n1)CCC3", "Potency": "active: 15.8 µM"}
{"smiles": "CC(C)c1nnc(NC(=O)c2c(O)c3cccc4c3n(c2=O)CC4)s1", "Potency": "inconclusive [activator, single point]"}
{"smiles": "Cc1ccc(N2C(=O)c3oc4ccccc4c(=O)c3C2c2cccc(O)c2)nc1", "note": "(stereo not given)", "activation": "inactive: -11.3%"}
{"smiles": "Cc1ccc(C)c(NC(=O)CSc2nnc(CCCCCNC(=O)OC(C)(C)C)o2)c1", "Potency": "inconclusive [activator, single point]"}
{"smiles": "CCCCC#CC1C=CC(Oc2cc(OC)c(OC)c(OC)c2)C(CO)O1", "note": "(stereo not given)", "activation": "inactive: 2.81% [at 11.4 µM]"}
{"smiles": "CSc1nc(-c2ccco2)nn1S(=O)(=O)c1ccccc1", "Potency": "inconclusive [activator, partial curve]"}
{"smiles": "CCOC(=O)Nc1ccc2c(c1)Nc1ccccc1S2", "activation": "inactive: -49.9%"}
{"smiles": "Cc1ccc(C)n1-c1cc(S(=O)(=O)N2CCOCC2)ccc1N1CCCC1", "Potency": "inconclusive [activator, partial curve]"}
{"smiles": "COc1ccc(NC(=O)c2cc(-c3ccc(C)o3)nc3ccccc23)cc1OC", "Potency": "active: 25.1 µM"}
{"smiles": "O=c1c2cc3c(=O)n(CC4CCCO4)c(=O)c3cc2c(=O)n1CC1CCCO1", "note": "(stereo not given)", "Potency": "inconclusive [activator, single point]"}
{"smiles": "c1csc(CN2CCN(Cc3cccs3)C2c2cccs2)c1", "Potency": "inconclusive [activator, partial curve]"}
{"smiles": "Fc1cccc(CSc2ncnc3c2oc2ccccc23)c1", "Potency": "inconclusive [activator, single point]"}
{"smiles": "Cn1c(SCc2nc(-c3cccs3)no2)nnc1C1CCCCC1", "Potency": "inconclusive [activator, partial curve]"}
{"smiles": "Cc1cccc(-n2ncc3c(NC4CCCCC4)ncnc32)c1", "Potency": "inconclusive [activator, full curve]"}
{"smiles": "COc1cccc(-c2cc(C(F)(F)F)nc(N3CCCCC3)n2)c1", "Potency": "inconclusive [activator, single point]"}
{"smiles": "CCC1Oc2ccccc2N(CC(=O)NCCC2=CCCCC2)C1=O", "note": "(stereo not given)", "Potency": "inconclusive [activator, partial curve]"}
{"smiles": "CN1CCc2c(sc3c2C(=O)NC(c2cn(Cc4ccccc4)c4ccccc24)N3)C1", "note": "(stereo not given)", "activation": "inactive: -3.84%"}
{"smiles": "CN(C)c1ccc(-c2ccc3ncnc(N(C)C)c3c2)cc1", "activation": "inactive: -17.2%"}
{"smiles": "COc1ccc(CN2CCN(C(=O)C3CC(=O)N(C4CCCCCC4)C3)CC2)c(OC)c1OC", "note": "(stereo not given)", "Potency": "inconclusive [activator, single point]"}
{"smiles": "CCOC(=O)COc1cc2c3c(c(=O)oc2cc1C)CCCC3", "Potency": "inconclusive [activator, partial curve]"}
{"smiles": "Cc1nc(SCC(=O)Nc2cc(C)on2)c2c(=O)n(C)c(=O)n(C)c2n1", "activation": "inactive: 2.82%"}
{"smiles": "COc1ccc(C)cc1NC(=O)CN1CCN(S(=O)(=O)c2ccc(F)cc2)CC1", "Potency": "inconclusive [activator, single point]"}
{"smiles": "O=c1n(Cc2ccc(Cl)cc2)c2sc3c(c2c2ncnn12)CCCC3", "Potency": "inconclusive [activator, single point]"}
{"smiles": "CSc1nsc(SCCN2C(=O)c3ccccc3C2=O)n1", "Potency": "inconclusive [activator, full curve]"}
{"smiles": "FC(F)(F)c1cc(-c2ccco2)nc(-n2nc(C(F)(F)F)cc2C2CC2)n1", "Potency": "inconclusive [activator, partial curve]"}
{"smiles": "Cc1ccc(N2CCN(S(=O)(=O)c3ccc(F)c(C)c3)CC2)c(C)c1", "activation": "inactive: 22.2%"}
{"smiles": "O=S(=O)(c1ccccc1)N1CCC[C@@]2(CCN(Cc3nccs3)C2)C1", "Potency": "inconclusive [activator, partial curve]"}
{"smiles": "COC(=O)[C@@]1(Cc2ccc(F)cc2)[C@H]2c3cc(C(=O)N(C)C)n(Cc4ccc(C)c(F)c4F)c3C[C@H]2CN1C(=O)c1ccccc1", "Potency": "inconclusive [activator, full curve]"}
{"smiles": "COc1ccc(CCNC(=O)CCCn2c(SCC#N)nc3ccccc3c2=O)cc1OC", "Potency": "inconclusive [activator, single point]"}
{"smiles": "C=CCn1c(=O)c(C(=O)Nc2ccccc2OC)c(O)c2ccccc21", "activation": "inactive: 7.99% [at 11.4 µM]"}
{"smiles": "CN(CC(=O)N1CCCCCC1)S(=O)(=O)c1ccc(Br)s1", "Potency": "inconclusive [activator, single point]"}
{"smiles": "Cc1ccc(S(=O)(=O)N2CCC(C(=O)N3Cc4ccccc4C3)CC2)cc1", "activation": "inactive: 7.26%"}
{"smiles": "CCOC(=O)C1C(=O)CC(C)(O)C(C(=O)OCC)C1c1ccc(Br)o1", "note": "(stereo not given)", "Potency": "inconclusive [activator, partial curve]"}
{"smiles": "Cc1cc(NC(=O)c2noc3c2CCCC3)nn1Cc1ccc(Cl)cc1", "Potency": "inconclusive [activator, partial curve]"}
{"smiles": "CCOc1ccc(Nc2nc(Cc3nnc(SCC(=O)NCc4ccco4)n3CC)cs2)cc1", "activation": "inactive: 0.921%"}
{"smiles": "COc1ccc(C2=C(N)c3ccccc3C2=O)cc1", "Potency": "inconclusive [activator, full curve]"}
{"smiles": "CCc1ccc2[nH]c(=O)c(CN(Cc3ccc4c(c3)OCO4)Cc3nnnn3C3CCCC3)cc2c1", "Potency": "inconclusive [activator, partial curve]"}
{"smiles": "CCOC(=O)c1ccc(N=c2sc(C(=O)OC)cc(=O)n2CCCN2CCOCC2)cc1", "Potency": "inconclusive [activator, single point]"}
{"smiles": "CS(=O)(=O)N1CCC2(CCN(C(=O)Nc3cccc(F)c3)CC2)CC1", "activation": "inactive: -7.17%"}
{"smiles": "CC(=O)NCCc1cc2ccc(C)c(C)c2[nH]c1=O", "Potency": "inconclusive [activator, partial curve]"}
{"smiles": "COc1cc2cc(C(=O)Nc3ccccc3)c(N)nc2cc1OC", "activation": "inactive: 10.3%"}
{"smiles": "COc1ccc2nc(C)cc(SCC(=O)O)c2c1", "activation": "inactive: 3.37%"}
{"smiles": "COc1ccc(S(=O)(=O)N(CC(=O)O)c2ccc(C)cc2)cc1", "Potency": "inconclusive [activator, single point]"}
{"smiles": "COC(=O)c1ccc(C(NC(=O)OCc2ccccc2)/C(F)=C/[C@@H](C)C(=O)N[C@@H](CO)Cc2ccccc2)cc1", "note": "(stereo not given in full)", "activation": "inactive: 2.48%"}
{"smiles": "CCOC(=O)c1c(C)[nH]c(C(=O)COC(=O)c2ccccc2NC(=O)c2ccco2)c1C", "activation": "inactive: -0.216%"}
{"smiles": "CCOC(=O)c1cnc2c(-c3ccccc3)c(C)nn2c1N", "Potency": "inconclusive [activator, single point]"}
{"smiles": "CCC(C)(C)C", "activation": "inactive: -0.0472%"}
{"smiles": "CCCCC(=O)Nc1cc(N(C)C)nc2ccccc12", "Potency": "inconclusive [activator, partial curve]"}
{"smiles": "FC(F)(F)c1cc(-c2ccco2)nc(NCc2cccs2)n1", "Potency": "inconclusive [activator, single point]"}
{"smiles": "O=C(NCCc1ccccc1)c1cccnc1N1CCCCCC1", "Potency": "inconclusive [activator, partial curve]"}
{"smiles": "CCOC(=O)CSc1nnc(CSc2nc(N)c3c(C)c(C)sc3n2)n1-c1ccccc1", "Potency": "inconclusive [activator, single point]"}
{"smiles": "Cc1cc(F)ccc1S(=O)(=O)Nc1ccccc1C(=O)Nc1ncn[nH]1", "Potency": "inconclusive [activator, single point]"}
{"smiles": "CCOC(=O)N1CCN(C(=O)C2CCCN(Cc3nc(-c4ccc(Cl)cc4)oc3C)C2)CC1", "note": "(stereo not given)", "Potency": "inconclusive [activator, partial curve]"}
{"smiles": "Cc1ccc(NCc2nnc(SCCN3CCCCC3)n2CC2CCCO2)cc1Cl", "note": "(stereo not given)", "Potency": "inconclusive [activator, partial curve]"}
{"smiles": "CC(O)Cc1nsc(NC(=O)c2ccc(Br)o2)n1", "note": "(stereo not given)", "Potency": "inconclusive [activator, single point]"}
{"smiles": "Cc1noc(C)c1COC(=O)Cc1ccc(Cl)c(Cl)c1", "activation": "inactive: 22.6%"}
{"smiles": "Cn1c(SCc2cc(=O)n3cc(Br)ccc3n2)nnc1C1COc2ccccc2O1", "note": "(stereo not given)", "Potency": "inconclusive [activator, single point]"}
{"smiles": "C=CCNc1nc(N2CCCC2)nc2ccccc12", "Potency": "inconclusive [activator, partial curve]"}
{"smiles": "CCOc1ccccc1N(C(=O)c1snc(C(N)=O)c1N)C(C(=O)NC1CCCC1)c1ccco1", "note": "(stereo not given)", "Potency": "inconclusive [activator, partial curve]"}
